Reference: paper PMC12815461
Changes are numbered by the printed parent chain. These are yes or no findings as the source states them, for the method shown. Binding seen in cells or lysates may run through a third protein. Some entries that bind do so weakly or less than the wild type. Sequences can lack the tags named with a protein.

By UniProt entry, the sequences of proteins in these tests, tags left out.
UniProt Q12888: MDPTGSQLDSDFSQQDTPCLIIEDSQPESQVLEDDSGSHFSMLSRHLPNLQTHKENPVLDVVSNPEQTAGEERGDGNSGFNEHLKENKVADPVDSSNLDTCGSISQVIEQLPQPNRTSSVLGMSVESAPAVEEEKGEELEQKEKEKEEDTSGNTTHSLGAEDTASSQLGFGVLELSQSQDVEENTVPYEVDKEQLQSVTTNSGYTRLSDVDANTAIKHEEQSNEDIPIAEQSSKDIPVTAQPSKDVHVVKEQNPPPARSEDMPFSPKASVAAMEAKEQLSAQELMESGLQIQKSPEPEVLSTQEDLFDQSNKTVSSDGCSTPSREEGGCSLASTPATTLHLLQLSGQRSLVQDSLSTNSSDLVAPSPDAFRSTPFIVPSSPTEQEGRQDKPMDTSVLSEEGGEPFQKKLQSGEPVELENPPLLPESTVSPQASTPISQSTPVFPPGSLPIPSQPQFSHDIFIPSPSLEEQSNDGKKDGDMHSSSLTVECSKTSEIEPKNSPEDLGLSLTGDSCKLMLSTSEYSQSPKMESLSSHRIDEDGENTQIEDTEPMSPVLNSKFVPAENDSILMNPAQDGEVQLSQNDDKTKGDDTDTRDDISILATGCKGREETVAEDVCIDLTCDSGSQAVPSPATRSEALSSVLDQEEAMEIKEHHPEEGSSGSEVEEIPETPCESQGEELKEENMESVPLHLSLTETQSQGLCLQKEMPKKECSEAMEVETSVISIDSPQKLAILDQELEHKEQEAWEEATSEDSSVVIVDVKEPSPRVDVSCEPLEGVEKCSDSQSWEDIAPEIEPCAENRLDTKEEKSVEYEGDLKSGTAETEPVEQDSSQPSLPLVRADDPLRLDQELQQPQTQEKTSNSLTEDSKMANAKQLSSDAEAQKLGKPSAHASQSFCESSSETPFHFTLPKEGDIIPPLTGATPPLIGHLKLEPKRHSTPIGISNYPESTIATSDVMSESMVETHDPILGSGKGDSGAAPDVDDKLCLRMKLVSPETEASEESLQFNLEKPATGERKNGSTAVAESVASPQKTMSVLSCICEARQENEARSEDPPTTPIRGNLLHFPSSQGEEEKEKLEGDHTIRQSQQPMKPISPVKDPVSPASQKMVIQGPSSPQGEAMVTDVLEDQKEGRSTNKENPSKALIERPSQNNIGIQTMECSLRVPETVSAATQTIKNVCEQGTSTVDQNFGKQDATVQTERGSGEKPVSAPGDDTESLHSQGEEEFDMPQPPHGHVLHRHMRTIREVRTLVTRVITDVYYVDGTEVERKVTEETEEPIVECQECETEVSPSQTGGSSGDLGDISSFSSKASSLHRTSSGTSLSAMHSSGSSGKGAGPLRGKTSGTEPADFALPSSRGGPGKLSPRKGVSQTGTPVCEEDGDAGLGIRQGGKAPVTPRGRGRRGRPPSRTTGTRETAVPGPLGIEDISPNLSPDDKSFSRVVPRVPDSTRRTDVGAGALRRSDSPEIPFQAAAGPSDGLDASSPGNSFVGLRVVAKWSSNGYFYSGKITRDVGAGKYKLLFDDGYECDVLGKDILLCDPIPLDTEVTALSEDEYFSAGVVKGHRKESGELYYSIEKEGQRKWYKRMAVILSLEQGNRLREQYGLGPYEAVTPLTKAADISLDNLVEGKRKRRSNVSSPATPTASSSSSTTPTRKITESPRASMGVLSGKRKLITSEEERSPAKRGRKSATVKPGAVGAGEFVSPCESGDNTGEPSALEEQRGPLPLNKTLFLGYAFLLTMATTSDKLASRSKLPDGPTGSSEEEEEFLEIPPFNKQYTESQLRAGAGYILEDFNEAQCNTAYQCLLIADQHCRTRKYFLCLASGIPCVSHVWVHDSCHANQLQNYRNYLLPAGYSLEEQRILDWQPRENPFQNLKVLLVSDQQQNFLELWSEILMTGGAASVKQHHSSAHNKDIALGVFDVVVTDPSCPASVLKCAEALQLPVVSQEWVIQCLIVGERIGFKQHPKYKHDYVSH

Experiments:
[1] = molecular target: T1, endogenous GMCL1 with a knocked-in C-terminal 2x FLAG tag (HCT116) (human (endogenous in HCT116)) (UniProt Q96IK5); experiment: co-IP; M phase-synchronized GMCL1 FLAG knock-in HCT116 cells; GMCL1 immunoprecipitated with FLAG beads, immunoblot
T1 sequence: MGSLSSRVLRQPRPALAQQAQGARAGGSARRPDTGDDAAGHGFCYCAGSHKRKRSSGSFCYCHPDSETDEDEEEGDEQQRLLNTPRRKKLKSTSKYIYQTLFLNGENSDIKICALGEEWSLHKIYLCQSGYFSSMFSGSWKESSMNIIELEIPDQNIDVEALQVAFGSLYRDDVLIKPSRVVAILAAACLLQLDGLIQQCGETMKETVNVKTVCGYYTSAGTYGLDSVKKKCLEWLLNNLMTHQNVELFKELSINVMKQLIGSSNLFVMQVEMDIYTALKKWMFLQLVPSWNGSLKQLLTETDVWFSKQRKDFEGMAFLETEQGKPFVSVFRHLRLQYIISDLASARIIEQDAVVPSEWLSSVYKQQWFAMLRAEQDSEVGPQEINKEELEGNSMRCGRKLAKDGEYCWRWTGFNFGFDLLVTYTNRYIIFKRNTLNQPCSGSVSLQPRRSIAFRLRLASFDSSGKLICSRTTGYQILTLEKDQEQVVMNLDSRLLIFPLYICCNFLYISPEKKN

[2] = molecular target: T2, FLAG-tagged GMCL1 R433A (human) (UniProt Q96IK5); experiment: co-IP; FLAG-GMCL1 variants or FLAG-GMCL2 transfected into HEK293T (Figure 1C with MLN4924 for 3 hr); FLAG-M2 magnetic beads, 4 °C, 2 hr; wash buffer 50 mM Tris-HCl pH 7.5, 150 mM NaCl, 0.2% NP-40; immunoblot for endogenous 53BP1 and CUL3
T2 sequence: T1 sequence with R433A

[3] = molecular target: T3, FLAG-tagged GMCL2 (human) (UniProt Q8NEA9); experiment: as above
T3 sequence: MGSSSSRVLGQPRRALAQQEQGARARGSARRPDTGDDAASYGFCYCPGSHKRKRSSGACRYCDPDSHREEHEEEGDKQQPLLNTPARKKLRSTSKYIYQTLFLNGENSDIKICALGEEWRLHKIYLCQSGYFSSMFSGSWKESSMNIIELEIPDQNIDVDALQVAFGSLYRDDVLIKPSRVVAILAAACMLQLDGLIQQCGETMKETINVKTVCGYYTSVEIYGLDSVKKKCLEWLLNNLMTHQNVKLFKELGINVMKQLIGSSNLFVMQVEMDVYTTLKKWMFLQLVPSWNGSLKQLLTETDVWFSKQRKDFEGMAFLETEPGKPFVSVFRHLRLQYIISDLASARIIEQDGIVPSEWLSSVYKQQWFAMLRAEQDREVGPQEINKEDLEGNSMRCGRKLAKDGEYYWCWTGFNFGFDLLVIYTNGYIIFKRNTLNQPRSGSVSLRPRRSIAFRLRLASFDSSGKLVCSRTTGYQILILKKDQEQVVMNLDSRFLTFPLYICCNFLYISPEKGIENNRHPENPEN

[4] = molecular target: T4, FLAG-tagged wild-type GMCL1 (germ cell-less protein-like 1) (human) (UniProt Q96IK5); experiment: as above
T4 sequence: T1 sequence

binding [1]	binding [2]	binding [3]	binding [4]	Substance
binds				53BP1, endogenous in HCT116 (from UniProt Q12888 1-1972)
	no binding	no binding	binds	53BP1 (p53-binding protein 1), endogenous in HEK293T (from UniProt Q12888 1-1972)
